The campaign covered roughly 310,000 compounds. About 14,000 (4.5%) showed an effect of 50% or more. The effect is printed as a negative number. The list shows a part of the results.
target: human ether-à-go-go-related gene (hERG) potassium channel (human, UniProt Q12809); assay: primary screen, population patch clamp on CHO cells stably expressing hERG
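Also: peak tail current of the secondary pulse compared with the same well before compound.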

human ether-à-go-go-related gene (hERG) potassium channel, sequence (Q12809 whole entry, looked up): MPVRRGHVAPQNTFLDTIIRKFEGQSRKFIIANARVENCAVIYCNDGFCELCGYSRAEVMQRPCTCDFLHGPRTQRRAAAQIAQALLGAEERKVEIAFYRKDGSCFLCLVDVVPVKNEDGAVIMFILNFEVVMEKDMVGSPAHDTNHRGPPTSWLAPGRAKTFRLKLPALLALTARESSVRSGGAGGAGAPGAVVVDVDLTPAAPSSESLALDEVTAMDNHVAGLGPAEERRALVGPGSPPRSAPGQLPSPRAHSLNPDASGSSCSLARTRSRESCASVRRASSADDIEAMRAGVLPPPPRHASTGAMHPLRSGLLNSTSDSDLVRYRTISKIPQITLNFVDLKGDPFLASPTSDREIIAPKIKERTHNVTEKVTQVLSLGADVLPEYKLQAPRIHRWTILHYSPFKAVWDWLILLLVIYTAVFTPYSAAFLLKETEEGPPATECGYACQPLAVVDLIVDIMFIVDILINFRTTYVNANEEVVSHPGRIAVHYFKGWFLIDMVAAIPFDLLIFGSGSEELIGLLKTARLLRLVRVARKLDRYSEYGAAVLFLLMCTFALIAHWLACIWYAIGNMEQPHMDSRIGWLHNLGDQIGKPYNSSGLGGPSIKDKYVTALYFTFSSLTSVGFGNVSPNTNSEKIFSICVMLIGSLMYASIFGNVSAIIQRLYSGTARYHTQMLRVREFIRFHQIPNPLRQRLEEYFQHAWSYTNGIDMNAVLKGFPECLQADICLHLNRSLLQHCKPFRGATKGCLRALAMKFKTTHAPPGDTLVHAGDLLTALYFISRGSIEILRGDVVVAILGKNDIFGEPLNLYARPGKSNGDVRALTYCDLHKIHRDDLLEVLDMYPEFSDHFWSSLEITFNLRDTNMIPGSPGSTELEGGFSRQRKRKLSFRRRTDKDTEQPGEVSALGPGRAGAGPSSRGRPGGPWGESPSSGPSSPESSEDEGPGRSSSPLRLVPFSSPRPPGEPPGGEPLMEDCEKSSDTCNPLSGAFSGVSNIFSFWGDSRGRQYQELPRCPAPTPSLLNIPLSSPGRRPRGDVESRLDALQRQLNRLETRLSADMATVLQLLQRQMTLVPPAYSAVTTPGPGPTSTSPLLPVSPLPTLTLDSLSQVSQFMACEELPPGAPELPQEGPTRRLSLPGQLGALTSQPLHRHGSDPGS

SMILES	hERG current change (%, negative = inhibition) at 10uM [%]
CN(C)C(=O)c1ccc(=O)n(Cc2ccc(Cl)cc2Cl)c1	-2.53
c1ccc(C(c2nnnn2C2CCCC2)N2CCCCCC2)nc1 (centres unmarked)	-13.1
COc1cc(/C=N/NC(N)=S)cc(Br)c1OCc1ccccc1F	-11.8
CC(=O)N1CCc2c(sc(NC(=O)Cc3ccccc3)c2C#N)C1	11.6
Cc1cc(=O)n2nc(N3CCCC(C(=O)NC4CCC(C)CC4)C3)sc2n1 (centres unmarked)	-0.297
COc1ccc(-c2nnnn2C(C)C)cc1S(=O)(=O)Nc1ccccc1	-13.9
Cc1ccc(C)c(S(=O)(=O)N/N=C/c2ccc(C(=O)O)cc2)c1	-0.036
OC1O[C@H](c2ccc3c(c2)OCO3)[C@H]2CO[C@H](c3ccc4c(c3)OCO4)[C@@H]12 (some centres unmarked)	-9.91
O=C(OCc1c(Cl)cccc1Cl)c1ccncc1	-6.56
CCCCOc1ccc(-c2cn3ccccc3n2)cc1[N+](=O)[O-]	22.9
CCN(CC)CCN(C)c1ccc(N2C(=O)C3CC=CCC3C2=O)cc1[N+](=O)[O-] (centres unmarked)	-6.16
Cc1ccc(NNC(=O)c2c(F)cccc2Cl)cc1Cl	2.13
CC(=O)c1cccc(NS(C)(=O)=O)c1	2.28
O=C(c1ccc(-c2ccccc2)cc1)N1CCC(C(=O)N2CCCC2)CC1	-19.8
Cc1cc2nc(CO)[nH]c2cc1C	14.9
Cc1c(Cl)cccc1NCC(=O)Nc1ccc(Cl)cc1F	18.8
COc1ccc(-c2nn(-c3ccccc3)cc2C(=O)NCCCn2ccnc2)cc1	-39.4
O=C(O)c1ccc(N/N=C/c2cc3c(cc2[N+](=O)[O-])OCO3)cc1	26.8
CCCc1cc(=O)n2[nH]c(CCc3ccccc3)nc2n1	14.1
COCCOc1nc2ccccc2nc1C	-2.05
CN1CCN(S(=O)(=O)c2ccc(Oc3cccc(C(F)(F)F)c3)nc2)CC1	-12.8
CCOc1ccc(OCC)c(-c2c(=O)n(OCc3ccc(Cl)cc3)c3ccccc3[n+]2[O-])c1	-9.58
COc1cccc2[nH]c(C(=O)NC(C)c3ccccc3)cc12 (centres unmarked)	-24.6

SMILES	hERG current change (%, negative = inhibition) at 10uM [%]
O=C(CSc1nc2ccccc2c(=O)n1Cc1ccco1)NCc1ccco1	-65.4
Cc1ccc(-c2nnc(N)s2)cc1	15.4
Clc1ccc(-c2n[nH]c3c2CCCC3)cc1	-3.33
CC(=O)NC1C(=O)N=C(SCC(=O)NC2CCCCC2)NC1=O (centres unmarked)	12.6
CCCCN=C(C)C1=C(O)CSC1=O	10.2
O=C(COc1ccc(Cl)cc1)Nc1ccc(N2CCN(C(=O)c3ccco3)CC2)cc1	-21.1
Nc1nc(N2CCOCC2)nc2ccccc12	-19.7
COc1ccc(N2C(=O)C3CC=C(Cl)CC3C2=O)cc1 (centres unmarked)	-0.738
CNC(=O)/C(C#N)=C/c1cn(CC(=O)NCc2ccco2)c2ccccc12	13.7
CCOc1ccc(NC(=S)N2CCn3c(nc4ccccc43)C2)cc1	-44.7
COC(=O)Nc1ccc(S(=O)(=O)N2CCCC(C(=O)NC3CCCCC3)C2)cc1 (centres unmarked)	4.76
O=c1oc2ccccc2c(O)c1[C@H]1c2ccc(O)cc2Oc2c1c(=O)oc1ccccc21	7.55
Cc1onc(-c2ccccc2)c1C(=O)NC(=S)NNC(=O)c1ccccc1O	9.31
O=C(CSc1nnc(Cc2cccs2)n1Cc1ccco1)Nc1ccc(Cl)cc1Cl	-57.1
N#CC(C(=O)Nc1cccc(Cl)c1)=C1Nc2ccccc2N1	13
COc1ccc(CNc2nc3c(c(=O)n(Cc4ccc(Br)cc4)c(=O)n3C)n2C)cc1	-10.8
O=C(C[n+]1ccccc1)Nc1ccccc1	7.93
COc1ccc(/C=N/NC(=O)c2ccncc2)cc1COc1ccc(NC(C)=O)cc1	-22.9
Cc1ccc(S(=O)(=O)N2CCOC2C(Cl)(Cl)Cl)cc1 (centres unmarked)	4.64
Cc1cc(-c2ccccc2)nc2c(Br)c(=O)[nH]n12	20.9
O=C(C1CCCN1S(=O)(=O)c1cccc2cccnc12)N1CCn2c1nc1ccccc12 (centres unmarked)	-50.8
CC1(C)CC(CC(=O)O)(c2ccccc2)CCO1 (centres unmarked)	-1.62
Cc1cc(C)c(OCC(=O)N/N=C/c2ccco2)c(C)c1	-3.8

SMILES	hERG current change (%, negative = inhibition) at 10uM [%]
Cc1nn(C2CCS(=O)(=O)C2)c(C)c1CN(C)C(=O)c1ccccc1 (centres unmarked)	0.783
COc1ccc(O)c(C(=O)c2cnc3c(c2)c(C)nn3C)c1	17.9
CNS(=O)(=O)c1cccc(C(=O)Nc2cccnc2)c1	-0.468
N#C/C(=C/c1ccccc1)C(=O)NCc1ccccc1	30
CC(=O)c1cccc(NC(=O)Cc2cccs2)c1	1.91
CN(C(=O)CSc1ccncc1)C1CCCN(Cc2ccccc2F)C1 (centres unmarked)	-19.3
COc1cccc(OC)c1C(=O)N1CCN(C(=O)c2ccc(-c3ccccc3)cc2)CC1	-9.56
C=CCOC(=O)Nc1c(C(=O)OC)[nH]c2ccccc12	12.9
COc1cccc(N/C(N)=N/c2nc(CSc3ccccn3)cc(=O)[nH]2)c1	8.04
O=C(CSc1nnc(COc2ccccc2)o1)Nc1ccc(F)cc1	11.5
CCOc1ccc(C(=O)NCCN(C)C)cc1	-10.8
CCN1CCN(c2nc(N)c([N+](=O)[O-])c(Nc3ccc(C)c(C)c3)n2)CC1	-6.91
COc1cc(OC)cc(C(=O)Nc2nnc(NC(=S)Nc3ccccc3)s2)c1	25
Cc1ccc(N(C(=O)CNC(=O)c2ccco2)C(C(=O)NC2CCCC2)c2cccnc2)c(C)c1 (centres unmarked)	10.1
COc1ccc(C2CC(=O)C(C=NCCN3CCN(C(=S)Nc4ccccc4)CC3)=C(O)C2)cc1 (centres unmarked)	-32.8
CCc1nc(NCCCn2ccnc2)c2oc3ccccc3c2n1.Cl	-56.1
CCN1C(=O)[C@@H]2[C@H](C1=O)[C@@H]1C(=O)Nc3ccccc3C(=O)N1[C@@H]2c1cccc(Cl)c1	-39.1
O=C(CSc1ccc2nnc(-c3ccccn3)n2n1)NCC1CCCO1 (centres unmarked)	-8.53
CS(=O)(=O)Nc1ccc2[nH]c(=O)[nH]c2c1	17.4
CCCc1c(C(=O)Nc2cc(C)on2)cnn1-c1ccccc1	8.73
O=C(N/N=C/c1ccccc1Br)c1cccc(S(=O)(=O)N2CCOCC2)c1	-18.2
C=CCn1cc([N+](=O)[O-])nc1C	8.88
CCOC(=O)N1CCN(S(=O)(=O)c2ccc(OCC(=O)OC)c(C)c2)CC1	-27.2

SMILES	hERG current change (%, negative = inhibition) at 10uM [%]
CCC(=O)c1ccc(N2CCN(C(=O)c3ccc(Br)cc3)CC2)c(F)c1	-16
COC(=O)c1ccc(NC(=S)NC2CCCCC2C)cc1 (centres unmarked)	-17.1
CCOc1ccccc1C1c2cc3c(cc2OC(C)(N2CCCC2)C1C)OCO3 (centres unmarked)	-8.46
Cc1cc2oc(=O)cc(CN3CCN(S(=O)(=O)c4cccs4)CC3)c2cc1C(C)C	0.126
COC(=O)C/C=C/[C@@H](C)[C@@H](/C=N/OC[C@H]1O[C@H](c2ccccc2)C=C[C@@H]1Oc1ccc(OC)cc1)OC	-1.9
O=C(O)C(=O)O.c1ccc(-c2ccccc2OCCCCN2CCCCCC2)cc1	-77.5
CCOP(=O)(OCC)C(O)c1ccc(N(C)C)cc1 (centres unmarked)	10.5
CCOC(=O)c1c(C2CC2)csc1NC(=O)COC(=O)c1ccc[n+]([O-])c1	-11
Cc1ccc(N(CC(=O)Nc2cccc(N(C)S(C)(=O)=O)c2)S(C)(=O)=O)cc1	-0.107
COc1ccc(N2C(=O)CN=C2Nc2nc(C)cc(C)n2)cc1OC	-4.68
Cc1oc2c(C)c3oc(=O)c(CC(=O)N[C@@H](CCCNC(N)=O)C(=O)O)c(C)c3cc2c1C	7.9
CCC(C(=O)OCC(=O)Nc1c(C)nn(-c2ccccc2)c1C)c1ccccc1 (centres unmarked)	-17.1
O=C(Nc1ccc(N2CCN(C(=O)c3cccs3)CC2)cc1)c1cccnc1	-7.59
COc1ccc(C)cc1S(=O)(=O)N1CCC(C(=O)N2CCOCC2)CC1	-9.35
COC(=O)CC1=C(C)C(=O)CC2C(C)(C)CCCC12C (centres unmarked)	-5.46
O=c1[nH]cnc2c1ncn2[C@H]1CC[C@@H](CO)O1	12.2
CC(=O)Nc1ccccc1C(=O)C(=O)Nc1cccc(Br)c1	2.76
O=C(CSc1c2c(nc3ccc(Cl)cc13)CCCC2)NCc1ccco1	-20.2
COc1ccccc1C1C(C#N)=C(N)Oc2cc(C)n(CCCn3ccnc3)c(=O)c21 (centres unmarked)	-3.33
Cn1c(Cl)nc2ccccc21	0.419
